# Measurements: the supplement of paper PMC4604168 (melanoma cell lines)
# The other results are listed elsewhere or left out. Single values are uncertain, as repeats are few or missing.
# System: LB2518-MEL
# Assay: cell count relative to DMSO control; melanoma cells; higher = more viable cells
# Details: library dose: standard library concentration; 72 h
# 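Further: cells treated in 1,536-well plates, then fixed and DAPI-stained, with nuclei counted from automated high-throughput microscope images.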
row,SMILES,cell count [%]
1,"NC(=O)c1ccc(N(C(N)=O)c2c(F)cccc2F)nc1-c1ccc(F)cc1F + O=C1NC(=O)/C(=C/c2ccc(-c3ccc(F)cc3O)o2)S1 [AS252424] (first compound 2 µM, partner dose 5 µM)",82.3
2,"NC(=O)c1ccc(N(C(N)=O)c2c(F)cccc2F)nc1-c1ccc(F)cc1F + COc1ccc(COc2ccc(Cc3cnc(N)nc3N)cc2OC)cc1 [GW2580] (first compound 2 µM, partner dose 5 µM)",119
3,"NC(=O)c1ccc(N(C(N)=O)c2c(F)cccc2F)nc1-c1ccc(F)cc1F + O=C(O)C(=O)Nc1sc2c(c1C(=O)O)CCNC2 [TCS401] (first compound 2 µM, partner dose 8.33333 µM)",100
4,"CC(C)(C)c1cnc(CSc2cnc(NC(=O)C3CCNCC3)s2)o1 + CC(C)CCN1c2nc(Nc3cc(F)c(O)c(F)c3)ncc2N(C)C(=O)C1C [BID1870] (first compound 0.05 µM, partner dose 1 µM)",84.7
5,"COc1cc2c(Oc3ccc4[nH]c(C)cc4c3F)ncnc2cc1OCCCN1CCCC1 [cediranib] + COc1ccc(-c2ccc3c(N4CCOCC4)nc(N4C[C@@H](C)O[C@@H](C)C4)nc3n2)cc1CO [KU0063794] (first compound 2 µM, partner dose 0.1 µM)",94.9
6,"CCc1ccc(CCOc2ccc(CC3SC(=O)NC3=O)cc2)nc1 (stereo unspecified) [pioglitazone] + Cn1cc(/C=C2\C(=O)Nc3cccnc32)c2ccccc21 [GW441756] (first compound 10 µM, partner dose 2 µM)",85.9
7,"NC(=O)c1ccc(N(C(N)=O)c2c(F)cccc2F)nc1-c1ccc(F)cc1F + O=c1cc(-c2cccc3c2Sc2ccccc2S3)oc(N2CCOCC2)c1 [KU55933] (first compound 2 µM, partner dose 5 µM)",117
8,"CN(NC(=O)CC(=O)NN(C)C(=S)c1ccccc1)C(=S)c1ccccc1 + CCc1ccc(CCOc2ccc(CC3SC(=O)NC3=O)cc2)nc1 [pioglitazone] (first compound 0.03 µM, partner dose 10 µM)",35.4
9,"NC(=O)c1ccc(N(C(N)=O)c2c(F)cccc2F)nc1-c1ccc(F)cc1F + c1cc(-c2cnn3cc(-c4ccc(OCCN5CCCCC5)cc4)cnc23)ccn1 [Dorsomorphin] (first compound 2 µM, partner dose 2 µM)",66.7
10,"Cc1ccc(NC(=O)c2cccc(N(C)C)c2)cc1NC(=O)c1ccc(O)cc1 + COc1ccc(-c2ccc3c(N4CCOCC4)nc(N4C[C@@H](C)O[C@@H](C)C4)nc3n2)cc1CO [KU0063794] (first compound 10 µM, partner dose 0.1 µM)",72
11,"NC(=O)c1ccc(N(C(N)=O)c2c(F)cccc2F)nc1-c1ccc(F)cc1F + CCN(CC)CCCCNc1ncc2cc(-c3cc(OC)cc(OC)c3)c(NC(=O)NC(C)(C)C)nc2n1 [PD173074] (first compound 2 µM, partner dose 0.5 µM)",113
12,"CCCCCCCCc1ccc(CCC(N)(CO)CO)cc1 [fingolimod] + Oc1nc(-c2ccc(C(F)(F)F)cc2)nc2c1CSCC2 [XAV939] (first compound 10 µM, partner dose 10 µM)",72.7
13,"NC(=O)c1ccc(N(C(N)=O)c2c(F)cccc2F)nc1-c1ccc(F)cc1F + COc1cc2ncnc(Nc3ccc(Oc4ccccc4)cc3)c2cc1OC [SrcI1] (first compound 2 µM, partner dose 10 µM)",107
14,"CCCCCCCCc1ccc(CCC(N)(CO)CO)cc1 [fingolimod] + Oc1cc(-c2nc(-c3ccccc3)[nH]c2-c2ccncc2)ccc1Cl [L779450] (first compound 10 µM, partner dose 1 µM)",0.38
15,"NC(=O)c1ccc(N(C(N)=O)c2c(F)cccc2F)nc1-c1ccc(F)cc1F + Oc1cc(-c2nc(-c3ccccc3)[nH]c2-c2ccncc2)ccc1Cl [L779450] (first compound 2 µM, partner dose 1 µM)",88.7
16,"COc1cc2c(Oc3ccc4[nH]c(C)cc4c3F)ncnc2cc1OCCCN1CCCC1 [cediranib] + COC(=O)c1sccc1S(=O)(=O)Nc1ccc(Nc2ccccc2)cc1OC [GSK0660] (first compound 2 µM, partner dose 5 µM)",119
